{"source": "PubChem BioAssay AID1347165", "about": "(National Center for Advancing Translational Sciences (NCATS), 2019)", "note": "Hit rate of the full screen: of about 220,000 compounds, about 5,700 (2.6%) were called active. The shares of active, inactive and inconclusive entries below differ from those in the screen. Calls come from the whole dose curve; as a rule, active = well fitted inhibition curve with a large enough effect; inconclusive = small, poorly fitted or top-dose-only effect; inactive = no such curve, though single readings can be large or run the other way. Potencies beside an inconclusive call are fits to weak or partial responses and may not hold up. Potency is the fitted concentration of half-maximal effect; tags give direction and shape of the fitted curve."}
{"target": "Lysine-specific demethylase 5B (Homo sapiens) (UniProt Q9UGL1)", "sequence (Q9UGL1 whole entry, looked up)": "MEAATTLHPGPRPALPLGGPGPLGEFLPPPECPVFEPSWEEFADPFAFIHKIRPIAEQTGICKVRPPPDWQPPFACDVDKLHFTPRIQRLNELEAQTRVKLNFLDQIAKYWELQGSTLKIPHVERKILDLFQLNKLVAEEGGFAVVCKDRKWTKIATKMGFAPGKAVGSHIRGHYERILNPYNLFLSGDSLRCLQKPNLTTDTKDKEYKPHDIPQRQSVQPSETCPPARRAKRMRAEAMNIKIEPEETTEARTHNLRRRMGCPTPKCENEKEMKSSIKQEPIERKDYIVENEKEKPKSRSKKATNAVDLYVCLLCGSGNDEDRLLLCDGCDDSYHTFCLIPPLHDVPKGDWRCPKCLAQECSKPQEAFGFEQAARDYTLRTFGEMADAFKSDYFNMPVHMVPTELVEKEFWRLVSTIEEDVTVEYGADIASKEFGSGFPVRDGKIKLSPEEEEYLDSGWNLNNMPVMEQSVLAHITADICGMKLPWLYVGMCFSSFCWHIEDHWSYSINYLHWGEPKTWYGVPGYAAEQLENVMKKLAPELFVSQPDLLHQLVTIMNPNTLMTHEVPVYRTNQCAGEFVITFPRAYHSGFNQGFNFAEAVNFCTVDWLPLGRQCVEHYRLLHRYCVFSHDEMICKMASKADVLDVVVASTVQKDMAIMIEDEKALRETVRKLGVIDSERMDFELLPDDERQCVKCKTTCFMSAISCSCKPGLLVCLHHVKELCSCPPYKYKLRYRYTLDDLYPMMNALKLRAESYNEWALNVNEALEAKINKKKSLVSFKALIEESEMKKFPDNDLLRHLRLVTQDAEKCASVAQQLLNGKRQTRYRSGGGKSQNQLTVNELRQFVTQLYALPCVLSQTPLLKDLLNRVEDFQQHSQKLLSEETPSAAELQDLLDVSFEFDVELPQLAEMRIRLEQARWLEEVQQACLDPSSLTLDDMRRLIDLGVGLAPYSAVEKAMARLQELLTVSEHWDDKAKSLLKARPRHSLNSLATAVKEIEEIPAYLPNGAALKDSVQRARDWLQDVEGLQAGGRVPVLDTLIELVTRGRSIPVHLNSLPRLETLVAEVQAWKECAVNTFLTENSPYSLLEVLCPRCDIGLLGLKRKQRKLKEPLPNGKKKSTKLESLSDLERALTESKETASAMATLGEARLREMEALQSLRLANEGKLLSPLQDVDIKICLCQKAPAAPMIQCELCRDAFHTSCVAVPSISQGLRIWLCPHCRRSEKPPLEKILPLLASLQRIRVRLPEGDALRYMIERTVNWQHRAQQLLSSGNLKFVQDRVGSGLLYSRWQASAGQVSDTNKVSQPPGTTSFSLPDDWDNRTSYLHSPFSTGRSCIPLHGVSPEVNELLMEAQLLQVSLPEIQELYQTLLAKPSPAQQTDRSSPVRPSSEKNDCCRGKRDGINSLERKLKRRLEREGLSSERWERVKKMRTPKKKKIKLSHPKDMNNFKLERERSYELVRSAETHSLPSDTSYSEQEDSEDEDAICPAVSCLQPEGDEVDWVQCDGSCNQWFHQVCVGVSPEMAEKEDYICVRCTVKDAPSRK", "test": "Primary screen for KDM5B Histone Demethylases FDH-coupled qHTS; note: nearly all actives have a fitted effect of over 70% in size; for activity change, negative = inhibition: 0% is about no effect", "details": "FDH-coupled NADH fluorescence (FDH is formaldehyde dehydrogenase); activity change, negative = inhibition: at 57.7 µM (top of the series) unless noted", "how_it_was_run": "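Measured: NADH fluorescence change, 30 min, RT. System: KDM5BΔAP 200 nM final, H3K4me3 peptide, α-KG, Fe(II), ascorbate, NAD⁺ plus FDH, pH 7.5 HEPES. Compounds: titrated, 10 min pre-incubation with enzyme.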"}
{"smiles": "O=C(NCC1(COc2cccnc2)C[C@@H](O)[C@@H](O)C1)c1nc2ccccc2[nH]1", "note": "(stereo not given in full)", "Potency": "inconclusive: 28.2 µM [inhibitor, partial curve, poor fit]"}
{"smiles": "CN(C)C1CCN(S(=O)(=O)c2ccc3c(c2)CN(C(=O)c2ccccn2)CC3)C1", "note": "(stereo not given)", "Potency": "inconclusive: 17.8 µM [inhibitor, partial curve, poor fit]"}
{"smiles": "CCC(CC)Nc1ncnc2c1CN(C1CCCNCC1)C(=O)CN2C", "note": "(stereo not given)", "Potency": "inconclusive: 50.1 µM [inhibitor, partial curve, poor fit]"}
{"smiles": "CCOc1ccc2oc(=O)cc(CN3CCN(C(=O)c4ccc(OC)c(OC)c4)CC3)c2c1", "Potency": "inconclusive: 20 µM [inhibitor, partial curve, poor fit]"}
{"smiles": "COc1ccc(NC(=O)N[C@H]2C[C@@H](C(=O)N[C@H](Cc3c[nH]c4ccccc34)C(N)=O)N(C(C)=O)C2)cc1", "Potency": "inconclusive: 15.8 µM [inhibitor, partial curve]"}
{"smiles": "Nc1nccnc1C(=O)NCCSC1CCCC1", "Potency": "inconclusive: 28.2 µM [inhibitor, partial curve, poor fit]"}
{"smiles": "CCC(C(=O)NCCc1ccccc1)n1nc(C)c2sc3ccccc3c2c1=O", "note": "(stereo not given)", "Potency": "inconclusive: 31.6 µM [inhibitor, partial curve, poor fit]"}
{"smiles": "Cc1c(C)n(Cc2ccc(F)cc2)c2ccc(C(=O)N3CCN(c4ccc(F)cc4)CC3)cc12", "Potency": "inconclusive: 17.8 µM [inhibitor, partial curve, poor fit]"}
{"smiles": "CC1CCCCC12CCc1cc3c4c(c(=O)oc3cc1O2)CCCC4", "note": "(stereo not given)", "Potency": "inconclusive: 20 µM [inhibitor, single point]"}
{"smiles": "COC(=O)[C@@H]1Cc2ncn(C)c2CN1S(=O)(=O)c1ccc(F)cc1", "Potency": "inconclusive: 25.1 µM [inhibitor, partial curve, poor fit]"}
{"smiles": "Cc1cccc(Nc2nc(N)nc(N)c2S(=O)(=O)c2ccccc2)c1", "Potency": "inconclusive: 31.6 µM [inhibitor, single point]"}
{"smiles": "Cc1noc(CN2CCCn3nc(C(O)C4CCC4)cc3C2)n1", "note": "(stereo not given)", "Potency": "inconclusive: 25.1 µM [inhibitor, single point]"}
{"smiles": "Cc1c(C(=O)C(=O)NCc2ccccc2Cl)c2ccccc2n1C", "activity change, negative = inhibition": "inactive: -2.58%"}
{"smiles": "Cc1ccc(NC(=O)N2Cc3[nH]cnc3C[C@H]2c2nc(-c3ccc4ccccc4c3)no2)cc1", "Potency": "active: 22.4 µM"}
{"smiles": "COc1c(F)c(F)cc2c(=O)c(C(=O)O)cn(C3CC3)c12", "Potency": "inconclusive: 35.5 µM [inhibitor, single point]"}
{"smiles": "CN(C)Cc1cn(C[C@H]2C[C@@H](NC(=O)c3ccc4c(c3)OCO4)[C@H](O)[C@@H]2O)nn1", "activity change, negative = inhibition": "inactive: -30.1%"}
{"smiles": "Cc1cccc(/C=C/C(=O)N(Cc2ccco2)C2CC2)c1", "activity change, negative = inhibition": "inactive: 1.09%"}
{"smiles": "CCCCc1nn2cc(-c3ccc(CC)cc3)nc2s1", "activity change, negative = inhibition": "inactive: 15.6%"}
{"smiles": "C/C(=N\\NC(N)=O)c1cc(Cl)cc(Cl)c1O", "Potency": "inconclusive: 39.8 µM [inhibitor, single point]"}
{"smiles": "CC1(CNc2ccccc2)COc2ccc(C(=O)NCc3cccs3)cc2N1", "note": "(stereo not given)", "Potency": "inconclusive: 35.5 µM [inhibitor, single point]"}
{"smiles": "Nc1nc2c(c(C(=O)N[C@H](c3ccccn3)C3CC(O)C3)n1)CCCC2", "note": "(stereo not given in full)", "Potency": "active: 28.2 µM"}
{"smiles": "Cc1ccc(-c2cn3c(n2)CO[C@@H](CNS(=O)(=O)c2cccs2)C3)cc1", "Potency": "inconclusive: 39.8 µM [inhibitor, partial curve, poor fit]"}
{"smiles": "O=C(Nc1ccc(F)c(Cl)c1)C1CCN(C(=O)c2ccc(F)cc2)CC1", "activity change, negative = inhibition": "inactive: 9%"}
{"smiles": "CC(=O)Nc1ccc(CN2C[C@@H](F)[C@@H](OCc3nc4ccccc4n3C)C2)cc1", "Potency": "active: 31.6 µM"}
{"smiles": "CCOC(=O)c1ccc(NC(=O)c2cnn(-c3ccc(C)cc3C)c2C2CCN(C(=O)OC(C)(C)C)CC2)cc1", "Potency": "inconclusive: 22.4 µM [inhibitor, single point]"}
{"smiles": "CCC(C)NC(=O)CCc1c(C)nc2c(c(C)nn2-c2ccccc2)c1C", "note": "(stereo not given)", "Potency": "inconclusive: 8.91 µM [inhibitor, partial curve, poor fit]"}
{"smiles": "CC(=O)N(C)C1CCCc2ccccc21", "note": "(stereo not given)", "activity change, negative = inhibition": "inactive: -28% [at 115 µM]"}
{"smiles": "Cc1ccc(-c2cc(C(=O)OCC(=O)NC(=O)NC(C)C)c3ccccc3n2)o1", "Potency": "inconclusive: 35.5 µM [inhibitor, partial curve, poor fit]"}
{"smiles": "Cc1ccc(NC(=O)c2noc3c2CCC3)cc1C", "Potency": "inconclusive: 39.8 µM [inhibitor, single point]"}
{"smiles": "COc1cc2ccccc2cc1C(=O)N1CCN(CC(=O)Nc2cccc(F)c2)CC1", "activity change, negative = inhibition": "inactive: -21.2%"}
{"smiles": "CC(Sc1nc(Cl)nc2nc[nH]c12)C(=O)N1CCN(c2ccccc2F)CC1", "note": "(stereo not given)", "activity change, negative = inhibition": "inactive: -14.7%"}
{"smiles": "CCOc1cc(C(=O)Nc2ccc3nc(Nc4cccc(Cl)c4)cc(C)c3c2)cc(OCC)c1OCC", "Potency": "inconclusive: 15.8 µM [inhibitor, partial curve, poor fit]"}
{"smiles": "COCCn1c(C)cc(C(=O)N2CCCC(Cc3noc(C4CC4)n3)C2)c1C", "note": "(stereo not given)", "Potency": "inconclusive: 28.2 µM [inhibitor, single point]"}
{"smiles": "COc1ccc(N2CC(NC(=O)/C=C\\c3ccc4c(c3)OCO4)CC2=O)cc1", "note": "(stereo not given)", "Potency": "inconclusive: 28.2 µM [inhibitor, partial curve, poor fit]"}
{"smiles": "CCOC(=O)c1scc(-c2ccccc2)c1S(=O)(=O)Nc1ccc(N(C)C)cc1", "Potency": "inconclusive: 14.1 µM [inhibitor, partial curve, poor fit]"}
{"smiles": "CC(C)CN(CCCNC(=O)c1cc(-c2ccc(Br)s2)nc2ccccc12)CC(C)C", "Potency": "inconclusive: 28.2 µM [inhibitor, partial curve, poor fit]"}
{"smiles": "Cc1cccn2c(=O)c3cc(C#N)c(=NC(=O)c4ccco4)n(Cc4ccco4)c3nc12", "Potency": "inconclusive: 35.5 µM [inhibitor, single point]"}
{"smiles": "O=C(Nc1nonc1-c1ccc(Cl)cc1)c1ccccc1F", "Potency": "inactive"}
{"smiles": "COc1ccc(C(=O)NCc2nnc3ccc(-c4ccc(F)cc4)nn23)cc1OC", "Potency": "inconclusive: 39.8 µM [inhibitor, single point]"}
{"smiles": "COc1ccc(-c2ocnc2C(=O)Nc2ccc(F)cc2F)cc1", "activity change, negative = inhibition": "inactive: 9.34%"}
{"smiles": "COC1C(=O)N(c2cccc(F)c2)C12CCN(C(=O)C1CCOCC1)CC2", "note": "(stereo not given)", "activity change, negative = inhibition": "inactive: -6.35%"}
{"smiles": "CCc1nnc(SCc2cccc(F)c2)c2cc3sc(C)cc3n12", "Potency": "inconclusive: 15.8 µM [inhibitor, partial curve, poor fit]"}
{"smiles": "CCN(Cc1nc2cc(Cl)ccc2c(=O)[nH]1)C(=O)CNC(=O)c1ccc(F)cc1", "activity change, negative = inhibition": "inactive: 1.6%"}
{"smiles": "CN1CCN(c2ccc3ncc(Nc4ccc(Cl)c(C(F)(F)F)c4)n3n2)CC1", "Potency": "active: 31.6 µM"}
{"smiles": "COC(=O)c1ccc(C2c3c(-c4cccc(OC)c4)n[nH]c(=O)c3Nc3nnnn32)cc1", "note": "(stereo not given)", "activity change, negative = inhibition": "inactive: 13.9%"}
{"smiles": "COCC(=O)N1N=C(c2ccc3c(c2)OCO3)CC1c1ccc2nccnc2c1", "note": "(stereo not given)", "activity change, negative = inhibition": "inactive: 13.2%"}
{"smiles": "O=C(N[C@@H]1CN(c2ncccn2)C[C@H]1CO)c1ccc(F)cc1", "Potency": "inconclusive: 20 µM [inhibitor, single point]"}
{"smiles": "COc1ccccc1CCC(=O)N1CCN(c2cc(-c3ccccc3)[nH]n2)CC1", "Potency": "inconclusive: 15.8 µM [inhibitor, partial curve]"}
{"smiles": "CC(C)N(CCNC(=O)c1n[nH]c(=O)c2ccccc12)C(C)C", "activity change, negative = inhibition": "inactive: -4.46%"}
{"smiles": "CCn1c(=O)c2ccnn2c2ccc(C(=O)NCc3ccc(N4CCOCC4)cc3)cc21", "Potency": "inconclusive: 22.4 µM [inhibitor, partial curve]"}
{"smiles": "O=S(=O)(N1CCCCC1)N1CCCC(c2nc3ccccc3o2)C1", "note": "(stereo not given)", "activity change, negative = inhibition": "inactive: 16.3%"}
{"smiles": "Cc1sc2ncnc(SCC(=O)Nc3ccc(CN4CCCC4)cc3)c2c1C", "Potency": "inconclusive: 31.6 µM [inhibitor, single point]"}
{"smiles": "O=C(CCC1N=C2c3ccccc3N=C(SCc3ccccc3Cl)N2C1=O)NCCc1ccccc1", "note": "(stereo not given)", "Potency": "inconclusive: 28.2 µM [inhibitor, partial curve, poor fit]"}
{"smiles": "Cn1c(=O)n(-c2ccc3c(c2)OCO3)c2nc(-c3ccc(Cl)cc3)nc(C(N)=O)c21", "Potency": "inconclusive: 17.8 µM [inhibitor, partial curve, poor fit]"}
{"smiles": "CCc1noc(-c2cccn3c(CNC(=O)CCc4ccc(OC)cc4)nnc23)n1", "activity change, negative = inhibition": "inactive: -21.2%"}
{"smiles": "CCC(C(=O)Nc1ccc(C(C)=O)cc1)n1nc(-c2cc(C)ccc2C)ccc1=O", "note": "(stereo not given)", "activity change, negative = inhibition": "inactive: -13.9%"}
{"smiles": "CN(Cc1csc(-c2ccccc2)n1)C(=O)CC1COCCN1", "note": "(stereo not given)", "Potency": "inconclusive: 20 µM [inhibitor, single point]"}
{"smiles": "O=C(Cc1cccc(F)c1)N1CCC(Cc2noc(C3CCOCC3)n2)C1", "note": "(stereo not given)", "activity change, negative = inhibition": "inactive: 8.79%"}
{"smiles": "COc1ccc(Br)cc1Cn1nnc(C(=O)Nc2ccc(C)cc2C)c1N", "Potency": "inconclusive: 17.8 µM [inhibitor, single point]"}
{"smiles": "Cc1cc(C)nc(NS(=O)(=O)c2ccc(NC(=O)c3ccccc3O)cc2)n1", "Potency": "inconclusive: 10 µM [inhibitor, partial curve, poor fit]"}
{"smiles": "O=C(c1ccc2[nH]ccc2c1)N1CCC(n2cc(-c3nc(-c4ccccc4)no3)nn2)C1", "note": "(stereo not given)", "Potency": "inconclusive: 12.6 µM [inhibitor, partial curve]"}
{"smiles": "O=C(O)C(c1c[nH]c2ccc(OCc3ccccc3)cc12)N1CCN(CC(=O)N2CCOCC2)CC1", "note": "(stereo not given)", "activity change, negative = inhibition": "inactive: -8.48%"}
{"smiles": "CS(=O)(=O)N[C@H]1CO[C@H]2[C@@H]1OC[C@@H]2Nc1nccc(-c2cccc(F)c2)n1", "Potency": "inconclusive: 39.8 µM [inhibitor, partial curve, poor fit]"}
{"smiles": "COc1cccc(CN2CCC[C@H]2C(=O)N2CCCCCCNC(=O)CC2)c1OC", "Potency": "inconclusive: 31.6 µM [inhibitor, single point]"}
{"smiles": "CCCN(Cc1ccc(F)cc1)Cc1cc(=O)n2c3c(sc2n1)CCCC3", "Potency": "inconclusive: 35.5 µM [inhibitor, partial curve, poor fit]"}
